Experimental data from the supplement of paper PMC4967469.
pIC50: −log10 of the molar value. The IC50 comes from the fitted curve, where viability falls to half of the control; fits outside the tested doses are given as limits. AUC is the area under the same curve over the 256-fold range up to the top dose, as a fraction; the more sensitive the line, the further below 1. For some assays here: An inferred top dose was calculated from the reported fits. For some assays here: Where an entry number is given, a second screen of the drug exists; the two often differ.

What was measured:
Assay in all cases: Viability of human cancer cell lines after 72 h of drug (GDSC screen)
QL-X-138 = compound: C=CC(=O)Nc1cc(-n2c(=O)ccc3cnc4ccc(-c5cn[nH]c5)cc4c32)ccc1C [QL-X-138]; conditions: top dose 10.24 µM; top dose inferred
Experimental: (§1)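 Human cancer cell lines in 384-well plates, medium with 10% serum, drug for 72 h over a 256-fold dose range (nine 2-fold or five 4-fold steps up to the top dose). Adherent lines were fixed and stained with the nucleic acid dye Syto60, suspension lines read with resazurin; signal relative to control wells, capped at 0 and 100%. One two-parameter sigmoid per drug and line, fitted in a mixed model over all curves with the slope shared within a line.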

(5Z)-7-Oxozeaenol = compound: COc1cc(O)c2c(c1)/C=C/C[C@H](O)[C@H](O)C(=O)/C=C\C[C@H](C)OC2=O [(5Z)-7-Oxozeaenol]; conditions: top dose 10 µM; top dose inferred
Experimental: as §1

ABT-888 = compound: C[C@]1(c2nc3c(C(N)=O)cccc3[nH]2)CCCN1 [ABT-888]; conditions: top dose 5 µM; top dose inferred
Experimental: as §1

GSK269962A = compound: CCn1c(-c2nonc2N)nc2cnc(Oc3cccc(NC(=O)c4ccc(OCCN5CCOCC5)cc4)c3)cc21 [GSK269962A]; conditions: top dose inferred
Experimental: as §1

Thapsigargin = compound: C/C=C(/C)C(=O)O[C@H]1C(C)=C2[C@H]([C@@H]1OC(=O)CCCCCCC)[C@@](C)(OC(C)=O)C[C@H](OC(=O)CCC)[C@@]1(O)[C@H]2OC(=O)[C@@]1(C)O [Thapsigargin]; conditions: top dose 0.512 µM; top dose inferred
Experimental: as §1

MPS-1-IN-1 = compound: COc1cc(N2CCC(O)CC2)ccc1Nc1cc(Nc2ccccc2S(=O)(=O)C(C)C)c2cc[nH]c2n1 [MPS-1-IN-1]; conditions: top dose 20 µM; top dose inferred
Experimental: as §1

CHIR-99021 = compound: Cc1cnc(-c2cnc(NCCNc3ccc(C#N)cn3)nc2-c2ccc(Cl)cc2Cl)[nH]1 [CHIR-99021]
Experimental: as §1

ABT-869 = compound: Cc1ccc(F)c(NC(=O)Nc2ccc(-c3cccc4[nH]nc(N)c34)cc2)c1 [ABT-869]; conditions: top dose 1.024 µM; top dose inferred
Experimental: as §1

CP466722 = compound: COc1cc2ncnc(-n3nc(-c4ccccn4)nc3N)c2cc1OC [CP466722]; conditions: top dose 16 µM; top dose inferred
Experimental: as §1

KU-55933 = compound: O=c1cc(-c2cccc3c2Sc2ccccc2S3)oc(N2CCOCC2)c1 [KU-55933]; conditions: top dose 10 µM
Experimental: as §1

Zibotentan = compound: COc1nc(C)cnc1NS(=O)(=O)c1cccnc1-c1ccc(-c2nnco2)cc1 [Zibotentan]; conditions: top dose 20 µM; top dose inferred
Experimental: as §1

CMK = compound: Cc1ccc(-c2c(C(=O)CCl)n(CCCO)c3ncnc(N)c23)cc1 [CMK]; conditions: top dose 4 µM; top dose inferred
Experimental: as §1

Cytarabine = compound: Nc1ccn([C@@H]2O[C@H](CO)[C@@H](O)[C@@H]2O)c(=O)n1 [Cytarabine]; conditions: top dose 2 µM
Experimental: as §1

[1] = top dose 2.5 µM, screen: GDSC drug entry 127
[2] = top dose 5 µM, screen: GDSC drug entry 1192
[3] = top dose 2.56 µM, screen: GDSC drug entry 154
[4] = top dose 10 µM, screen: GDSC drug entry 1241, top dose inferred

Row | Cell Line | AUC (QL-X-138) | pIC50 (QL-X-138) | AUC ((5Z)-7-Oxozeaenol) | pIC50 ((5Z)-7-Oxozeaenol) | AUC (ABT-888) | pIC50 (ABT-888) | AUC (GSK269962A; [1]) | pIC50 (GSK269962A; [1]) | AUC (GSK269962A; [2]) | pIC50 (GSK269962A; [2]) | AUC (Thapsigargin) | pIC50 (Thapsigargin) | AUC (MPS-1-IN-1) | pIC50 (MPS-1-IN-1) | AUC (CHIR-99021; [3]) | pIC50 (CHIR-99021; [3]) | AUC (CHIR-99021; [4]) | pIC50 (CHIR-99021; [4]) | AUC (ABT-869) | pIC50 (ABT-869) | AUC (CP466722) | pIC50 (CP466722) | AUC (KU-55933) | pIC50 (KU-55933) | AUC (Zibotentan) | pIC50 (Zibotentan) | AUC (CMK) | pIC50 (CMK) | AUC (Cytarabine) | pIC50 (Cytarabine)
1 | Mo-T (hairy cell leukaemia, suspension) | 0.732 | 5.53 | 0.731 | 5.54 | 0.972 | < 5.30 | 0.987 | < 5.60 | 0.945 | < 5.30 | 0.818 | 6.53 | 0.9 | < 4.70 | 0.987 | < 5.59 | 0.979 | < 5.00 | 0.986 | < 5.99 | 0.763 | 5.23 | 0.881 | < 5.00 | 0.986 | < 4.70 | 0.981 | < 5.40 | 0.71 | 6.30
2 | NB5 (neuroblastoma, adherent) | 0.793 | 5.32 | 0.465 | 6.30 | 0.981 | < 5.30 | 0.987 | < 5.60 | 0.881 | < 5.30 | 0.618 | 7.17 | 0.873 | 4.71 | 0.987 | < 5.59 | 0.857 | 5.08 | 0.985 | < 5.99 | 0.893 | < 4.80 | 0.965 | < 5.00 | 0.982 | < 4.70 | 0.856 | 5.48 | 0.706 | 6.32
3 | NB6 (neuroblastoma, adherent) | 0.641 | 5.76 | 0.967 | < 5.00 | 0.982 | < 5.30 | 0.66 | 6.32 | 0.964 | < 5.30 | 0.305 | 8.10 | 0.925 | < 4.70 | 0.958 | < 5.59 | 0.978 | < 5.00 | 0.981 | < 5.99 | 0.822 | 4.91 | 0.984 | < 5.00 | 0.98 | < 4.70 | 0.853 | < 5.40 | 0.929 | < 5.70
4 | NB10 (neuroblastoma, adherent) | 0.869 | 5.04 | 0.455 | 6.32 | 0.978 | < 5.30 | 0.517 | 6.76 | 0.862 | 5.39 | 0.632 | 7.13 | 0.832 | 4.91 | 0.984 | < 5.59 | 0.917 | < 5.00 | 0.985 | < 5.99 | 0.916 | < 4.80 | 0.986 | < 5.00 | 0.987 | < 4.70 | 0.986 | < 5.40 | 0.53 | 6.82
5 | NB13 (neuroblastoma, adherent) | 0.758 | 5.50 | 0.793 | 5.40 | 0.989 | < 5.30 | 0.872 | 5.71 | 0.902 | < 5.30 | 0.237 | 8.21 | 0.754 | 5.22 | 0.99 | < 5.59 | 0.846 | 5.22 | 0.989 | < 5.99 | 0.921 | < 4.80 | 0.966 | < 5.00 | 0.99 | < 4.70 | 0.726 | 6.00 | 0.954 | < 5.70
6 | NB(TU)1-10 (neuroblastoma, adherent) | 0.976 | < 4.99 | 0.844 | 5.24 | 0.977 | < 5.30 | 0.971 | < 5.60 | 0.992 | < 5.30 | 0.294 | 8.03 | 0.757 | 5.22 | 0.972 | < 5.59 | 0.993 | < 5.00 | 0.989 | < 5.99 | 0.97 | < 4.80 | 0.964 | < 5.00 | 0.993 | < 4.70 | 0.939 | < 5.40 | 0.993 | < 5.70
7 | NB-4 (acute myeloid leukaemia, suspension) | 0.535 | 6.11 | 0.472 | 6.27 | 0.99 | < 5.30 | 0.984 | < 5.60 | 0.97 | < 5.30 | 0.34 | 7.90 | 0.736 | 5.30 | 0.991 | < 5.59 | 0.991 | < 5.00 | 0.988 | < 5.99 | 0.636 | 5.66 | 0.973 | < 5.00 | 0.99 | < 4.70 | 0.845 | 5.67 | 0.717 | 
8 | NCI-H69 (small cell lung carcinoma, suspension) | 0.683 | 5.66 | 0.752 | 5.44 | 0.986 | < 5.30 | 0.926 | < 5.60 | 0.823 | 5.47 | 0.606 | 7.19 | 0.985 | < 4.70 | 0.986 | < 5.59 | 0.984 | < 5.00 | 0.986 | < 5.99 | 0.785 | 5.12 | 0.969 | < 5.00 | 0.986 | < 4.70 | 0.971 | < 5.40 | 0.985 | < 5.70
